# Assay results from paper PMC4336329 (PLoS ONE, 2015).
# Among all 310,000 compounds or so, about 2,200 (0.71%) showed an effect of 50% or more. Effects have a minus sign here. This is one part of the list.
# Biological target: human ether-à-go-go-related gene (hERG) potassium channel (human, UniProt Q12809)
# Experiment: primary screen, population patch clamp on CHO cells stably expressing hERG
# human ether-à-go-go-related gene (hERG) potassium channel, sequence (Q12809 whole entry, looked up): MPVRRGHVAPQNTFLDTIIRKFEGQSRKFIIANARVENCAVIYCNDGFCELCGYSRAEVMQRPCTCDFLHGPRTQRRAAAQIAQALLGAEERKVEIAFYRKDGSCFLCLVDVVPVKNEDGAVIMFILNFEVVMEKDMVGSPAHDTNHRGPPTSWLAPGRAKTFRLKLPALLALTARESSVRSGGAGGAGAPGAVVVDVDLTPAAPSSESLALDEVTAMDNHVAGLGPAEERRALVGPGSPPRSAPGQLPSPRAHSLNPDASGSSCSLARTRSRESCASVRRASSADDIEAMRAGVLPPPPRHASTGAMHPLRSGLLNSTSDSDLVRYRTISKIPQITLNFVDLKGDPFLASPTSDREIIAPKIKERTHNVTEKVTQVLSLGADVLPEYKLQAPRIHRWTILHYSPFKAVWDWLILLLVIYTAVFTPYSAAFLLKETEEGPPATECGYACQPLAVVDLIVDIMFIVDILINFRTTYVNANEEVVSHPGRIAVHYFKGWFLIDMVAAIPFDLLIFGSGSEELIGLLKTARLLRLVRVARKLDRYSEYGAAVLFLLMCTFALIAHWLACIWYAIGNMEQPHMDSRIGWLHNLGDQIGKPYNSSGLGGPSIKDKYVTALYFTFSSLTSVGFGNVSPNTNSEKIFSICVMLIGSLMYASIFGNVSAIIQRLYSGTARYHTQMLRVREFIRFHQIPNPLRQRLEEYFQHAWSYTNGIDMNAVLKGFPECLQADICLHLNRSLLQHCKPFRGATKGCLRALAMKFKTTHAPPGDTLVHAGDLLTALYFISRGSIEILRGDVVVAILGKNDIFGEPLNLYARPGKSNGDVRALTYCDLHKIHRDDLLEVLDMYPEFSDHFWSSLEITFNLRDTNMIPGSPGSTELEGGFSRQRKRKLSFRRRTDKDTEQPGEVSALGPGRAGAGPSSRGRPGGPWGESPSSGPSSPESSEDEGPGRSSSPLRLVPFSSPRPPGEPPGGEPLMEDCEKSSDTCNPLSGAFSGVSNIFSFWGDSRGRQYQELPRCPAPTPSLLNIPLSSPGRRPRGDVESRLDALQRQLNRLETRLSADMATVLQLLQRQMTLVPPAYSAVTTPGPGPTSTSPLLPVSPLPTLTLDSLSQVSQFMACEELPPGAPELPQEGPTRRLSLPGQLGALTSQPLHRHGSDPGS
row,SMILES,"hERG current change (%, negative = inhibition) at 1uM"
1,COc1ccc(C2c3cc(OC)c(OC)cc3CCN2C(=O)c2cccc([N+](=O)[O-])c2)cc1OC (stereo not shown),11.3%
2,COc1cc(OC)cc(OC(=O)c2cccc(S(=O)(=O)N3CCN(C)CC3)c2)c1,9.94%
3,O=C(NCC1CCCC(CNC(=O)N2CCc3ccccc32)C1)N1CCc2ccccc21 (stereo not shown),22.6%
4,COc1nc(OC)nc(N2CCC(NC(=O)C(Cc3ccc(C(C)C)cc3)NC(C)=O)CC2)n1 (stereo not shown),13.1%
5,CCCNC(=O)N1CCC(Cc2ccccc2)CC1,8.45%
6,CCOC(=O)c1ccccc1OC(=O)CS(=O)c1ccccc1[N+](=O)[O-] (stereo not shown),15.2%
7,Cc1c(C(=O)N2CCN(c3ccc(F)cc3)CC2)sc2nc3n(c(=O)c12)CCC3,2.54%
8,COc1ccc(-c2nc(-c3ccc(C(=O)O)cc3)no2)cc1,7.29%
9,C/C=C\C=C/C(=O)Nc1cccc(C2=NOC3(C2)C[C@@H](C(N)=O)N(C(=O)c2ccccc2)C3)c1 (stereo partly shown),12.8%
10,O=S1(=O)CCC(NC(=S)N2CCOCC2)C1 (stereo not shown),12.3%
11,CCc1cc2c(N3CCN(C)CC3)ncnc2s1.Cl,-18%
12,CCOC(=O)N1CCN(C(c2ccccc2)c2sc3nc(C)nn3c2O)CC1 (stereo not shown),4.76%
13,CCOC(=O)c1sc(N(Cc2ccccc2)C(=O)COC(=O)c2ccc(O)cc2)nc1C,18.6%
14,CC(C)NC(=O)COC(=O)/C=C/c1ccco1,13.2%
15,CCO[C@H]1OC(C(=O)NCc2nc3ccccc3[nH]2)=C[C@@H](c2cn(C(C)=O)c3ccccc23)[C@@H]1CCCO,-23.9%
16,CC(=O)Nc1ccc(NC(=O)Cn2cnc3c(cnn3C(C)(C)C)c2=O)cc1,13.8%
17,COc1cc(/C=C(\C#N)C(N)=O)ccc1OS(=O)(=O)c1ccc(C)cc1,12.8%
18,COCCOc1nc2c(c(=O)n(C)c(=O)n2C)n1Cc1cccc(OC)c1,11.7%
19,O=C(c1ccccc1)c1ccccc1N=Cc1c(O)[nH]c(=O)[nH]c1=O,9.44%
20,C/C(CC(=O)N1CCN(C=O)CC1)=N\NC(=O)c1ccc(Br)cc1,8.82%
21,O=C(CC(=O)N/N=C/c1ccc(C(=O)O)cc1)NCCc1ccccc1,19.1%
22,COc1cc(/C=N/NP(=S)(c2ccccc2)c2ccccc2)ccc1O,3.62%

row,SMILES,"hERG current change (%, negative = inhibition) at 1uM"
1,O=C(c1ccco1)N1N=C(c2ccc(Cl)cc2)CC1c1ccco1 (stereo not shown),12.5%
2,COc1ccccc1-c1c(C)nn2c(NCCN3CCCC3)cc(C)nc12,12.3%
3,Cc1nn(-c2ccc(F)cc2)c(-n2cccc2)c1C(=O)N1CCN(C(=O)c2ccco2)CC1,14.2%
4,Nc1ncc2[nH]cnc2n1,15%
5,COc1cc(/C=C/C(=O)O)cc(S(=O)(=O)NCc2ccc3c(c2)OCO3)c1OC,13.1%
6,O=C(Nc1ccncc1)c1ccc(S(=O)(=O)Nc2ccccc2)cc1,11.9%
7,O=C(COc1ccc(F)cc1F)N1CCCCCCC1,15.8%
8,Cc1c(C(=O)NCCN2CCCC(O)C2)oc2c(F)cccc12 (stereo not shown),10.6%
9,CC(C)[C@H](NC(=O)N1CC(=O)Nc2ccccc21)C(=O)N[C@H](C(=O)O)c1ccccc1,7.98%
10,Cc1cccc(C(=O)NCCC(=O)NCc2ccccc2Cl)c1,-5.83%
11,CCN(Cc1nc(-c2ccc(OC)cc2)no1)C(=O)c1ccc2c(c1)OCO2,9.34%
12,Cc1ccc(-n2nc3ccc(N)cc3n2)cc1C,6.98%
13,Cc1ccc(N2CC(C(=O)Oc3cccc(N4C(=O)CCC4=O)c3)CC2=O)cc1 (stereo not shown),-8.29%
14,COc1ccc(CNC(=S)Nc2ccccc2-c2ccccc2)cc1,5.81%
15,O=C(CN1CCN(C(=O)C2CC2)CC1)Nc1cc(C(F)(F)F)cc(C(F)(F)F)c1,-5.9%
16,CC(=O)O[C@@]12CO[C@@H]1C[C@H](OC1OCC(O)C(O)C1O)[C@@]1(C)C(=O)[C@H](O)C3=C(C)[C@@H](OC(=O)[C@H](O)[C@@H](NC(=O)c4ccccc4)c4ccccc4)C[C@@](O)([C@@H](OC(=O)c4ccccc4)C12)C3(C)C (stereo partly shown),5.93%
17,Cc1cccc(CSc2nnc(CCNC(=O)OC(C)(C)C)o2)c1,6.05%
18,Cc1onc(-c2ccccc2)c1C(=O)N1CCN(S(=O)(=O)c2ccc(OC(F)(F)F)cc2)CC1,11.3%
19,CCC(C(=O)NCCC1=CCCCC1)c1ccccc1 (stereo not shown),4.51%
20,O=C(NCc1cccs1)c1ccc(S(=O)(=O)N2CCCCC2)cc1,8.76%
21,N[C@@H](Cc1ccc(N(CCCl)CCCl)cc1)C(=O)O,8.67%
22,C=CCOc1nc(N(C)C)nc(N(C)C)n1,10.3%

row,SMILES,"hERG current change (%, negative = inhibition) at 1uM"
1,COc1ccc(/C=N/NC(=O)CN(CCc2ccccc2)S(=O)(=O)c2ccc(NC(C)=O)cc2)cc1OC,-3.42%
2,CCC1CCCN1Cn1cnc2c([nH]c3ccc(Cl)cc32)c1=O (stereo not shown),-70.9%
3,O=C(Nc1cc(Cl)ccc1-n1cncn1)c1cncc(Br)c1,19.7%
4,COc1ccc(C(C)=O)cc1COC(=O)c1cccc(N(C)C)c1,6.78%
5,CN1CCC(N(C)C(=O)c2ccccc2Nc2ccc(SC(F)F)cc2)CC1,-21.2%
6,CCOC(=O)c1c(NC(=O)CSc2nccn2C)sc(C(=O)NC)c1C,8.98%
7,CCCC1=C(C(=O)OCC)C(c2ccc(F)cc2)n2ncnc2N1 (stereo not shown),-14.8%
8,O=C(Cn1nc(Cl)nc1Cl)c1ccc(F)cc1,8.98%
9,CC1(C)COC(/C=C/c2ccc([N+](=O)[O-])cc2)=N1,0.435%
10,COC(=O)[C@H](Cc1ccccc1)NC(=O)NC(C)CCc1ccccc1 (stereo partly shown),2.53%
11,CC(C)(C)NC(=S)NNC(=O)c1cccc(Br)c1,11.6%
12,O=C(OCC(=O)c1c[nH]c2ccccc12)c1cc2ccccc2cc1O,5.94%
13,CSc1ccccc1C(=O)Nc1cccc(C)c1,9.27%
14,CC[N+](C)(CC)CCC(c1ccccc1)C1CCCCC1 (stereo not shown),11.1%
15,O=C(Nc1ccccc1N(C(=O)c1ccco1)S(=O)(=O)c1cccs1)c1ccco1,10%
16,CC(C)C(c1nnnn1Cc1ccc(F)cc1)N1CCN(C2CCCCC2)CC1 (stereo not shown),-40.8%
17,CCOc1cc(C=O)cc(Br)c1OCC(=O)NCCc1ccccc1,0.247%
18,Cc1cc(C(=O)NC2CCCC(C)C2C)c2ccccc2n1 (stereo not shown),11.8%
19,NC(=O)c1ccccc1NC(=O)c1ccccc1Cl,2.08%
20,CCN(CC)CCCCCCCCOC(=O)c1cc(OC)c(OC)c(OC)c1.Cl,0.589%
21,O=C(c1ccc(=O)[nH]c1)N1CCCc2ccccc21,7.56%
22,Cc1c(C(=O)OCC(=O)NCc2ccco2)cccc1[N+](=O)[O-],-2.37%

row,SMILES,"hERG current change (%, negative = inhibition) at 1uM"
1,Cc1nc(C)n(CC(O)COc2ccc3c(c2)CCC3)n1 (stereo not shown),3.77%
2,Cc1cccc(NS(=O)(=O)Cc2ccccc2)n1,1.28%
3,COc1ccc(-n2nnnc2SCC(=O)N2CCOCC2)cc1,0.0244%
4,Nc1c(Cl)ncnc1N1CCN(c2ncnc(Cl)c2N)CC1,8.26%
5,CCC1CCCCN1C(=O)c1ccc([N+](=O)[O-])o1 (stereo not shown),12.1%
6,COc1ccc(C2CC(c3ccccc3O)=NN2c2ccccc2)cc1 (stereo not shown),11.3%
7,CSCC[C@H](NC(=O)NCc1ccc(F)cc1)C(=O)O,0.257%
8,Cc1ccc(NC(=O)c2ccc(OC(=O)COc3cccc(Cl)c3)cc2)cc1,12.9%
9,Cc1ccc(C)n1-c1ncc(Br)cn1,14.1%
10,Brc1ccccc1OCCOCCOc1cccc2cccnc12,8.11%
11,Cc1[nH]nc2c1C(C(C)c1ccccc1)C(C#N)=C(N)O2 (stereo not shown),7.79%
12,CC(C)(C)n1ncc2c(=O)n(CC(=O)NCCc3ccccc3)cnc21,6.79%
13,CCn1c(O)c(C=Nc2ccc(S(N)(=O)=O)cc2)c(=O)[nH]c1=S,10%
14,Cc1ccc(C)c(Cn2ncc3ccccc32)c1,10.1%
15,COC(=O)c1ccc(OC(=O)CCN2C(=O)C3C4c5ccccc5C(c5ccccc54)C3C2=O)cc1 (stereo not shown),4.48%
16,OCC[C@@H]1C[C@H](O)[C@@H](O)[C@]2(Cc3ccccc3CO2)O1,1.79%
17,COC(=O)c1nnc(-c2ccccc2)nc1OC,7.08%
18,CCOC(=O)C1=C(C)Nc2ncnn2C1c1cccnc1 (stereo not shown),19.5%
19,COc1ccc(OC)c(NC(=O)CN2C(=O)C(C)N(c3ccc(C)cc3)C2=O)c1 (stereo not shown),3.58%
20,O=C(/C=C/c1ccccc1Cl)NCCCn1ccnc1,-3.72%
21,CCCOc1ccc(NC(=O)CC2C(=O)N(CC)C(=S)N2CCCN2CCN(Cc3ccccc3)CC2)cc1 (stereo not shown),2.4%
22,O=C1CC(c2ccc(F)cc2)SC(N(c2ccccc2)c2ccccc2)=N1 (stereo not shown),10.1%
